The list shows a part of the results. For some assays here: At the low end of the ranking the order means little. For some assays here: Measured with an extract: partners may take part in the binding.
Tests used:
Settings in all cases: 20 mM HEPES pH 7.9, 100 mM NaCl, 1 mM DTT, 0.2 mg/mL BSA, 0.02% Triton X-100, 2% milk, 0.4 mg/mL salmon testes DNA; 1 h; temperature not stated; high values mean tight binding; double strand, one strand shown; sequences stand for … in GCCTAGCAC…GTGCTAGGTCTTGATTCGCTTGACGCTGCTG
PU.1 (IVT) = PU.1 (IVT) (UniProt P17947); assay: protein-binding microarray (PBM)
[1] = molecular target: PU.1 (endogenous, THP-1 nuclear extract) (UniProt P17947); assay: nuclear extract protein-binding microarray (nextPBM)
[2] = molecular target: T1, FLI1 (endogenous, THP-1 nuclear extract) (UniProt Q01543); assay: as above
T1 sequence: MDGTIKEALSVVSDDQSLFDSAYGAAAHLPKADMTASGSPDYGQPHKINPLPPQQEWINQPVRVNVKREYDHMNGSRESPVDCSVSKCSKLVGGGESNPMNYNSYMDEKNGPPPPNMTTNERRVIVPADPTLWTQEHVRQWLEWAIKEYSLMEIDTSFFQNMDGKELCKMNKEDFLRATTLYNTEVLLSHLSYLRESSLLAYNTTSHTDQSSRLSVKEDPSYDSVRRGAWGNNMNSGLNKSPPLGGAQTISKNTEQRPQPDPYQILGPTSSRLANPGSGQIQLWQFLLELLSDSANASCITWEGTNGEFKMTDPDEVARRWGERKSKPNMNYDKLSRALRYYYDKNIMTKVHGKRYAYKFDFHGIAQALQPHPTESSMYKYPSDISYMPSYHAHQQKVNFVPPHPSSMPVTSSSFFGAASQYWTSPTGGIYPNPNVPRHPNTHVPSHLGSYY

[3] = system: PU.1 (endogenous, THP-1 nuclear extract) + IRF8 (endogenous, THP-1 nuclear extract); assay: as above

Row | Sequence | binding signal (PU.1 (IVT)) [z-score] | binding signal [1] [z-score] | binding signal [2] [z-score] | binding signal [3] [z-score]
1 | AATCTTCAGTGTTGGAGCCA | -0.0894 | -0.376 | -1.03 | -1.02
2 | GGAGGAAGTCTTGAGGTGTT | 1.33 | 1.37 | 1.66 | 0.356
3 | GGTTTGAACATGATGCATCA | -0.343 | -0.861 | -0.653 | -0.97
4 | GGTCCGTCCTCTTCCGGTGT | 0.224 | 0.239 | 4.51 | 0.368
5 | GATCGGGGATGAGAAGGGGA | -0.457 | -0.312 | -0.175 | -0.242
6 | AGCCCACTCAGGGTTCTGTG | -0.692 | -0.617 | -0.692 | 0.38
7 | AGGCCATTTAGGAATCTTCT | -0.495 | -0.0474 | -0.279 | 0.659
8 | GATAAGACTGCCTGAAAGCT | -0.588 | -0.353 | -0.693 | 0.816
9 | TACTATATATGTGGTCACCC | 0.45 | -0.361 | -0.0492 | -0.874
10 | TTGGAGATAGGTTAGCAATA | -0.078 | -0.302 | -0.191 | -0.432
11 | AAGGGGAAGTGGGAAGAAAC | 3.92 | 4.09 | 2.01 | 0.199
12 | TTCACAAAGTTGTGCAATCA | -0.0666 | -0.588 | -0.0407 | 0.344
13 | ATCTCTGGCAGATTCATTAA | 0.0295 | -0.323 | -0.578 | -0.698
14 | TGGCCGTGATAAGGCACCCC | -0.92 | -0.339 | -0.328 | 0.861
15 | TCTCACTGAGAAAGTTGATA | -0.0484 | -0.188 | -0.0155 | -0.348
16 | AGCAAAAATTTTTAACCCAA | 0.222 | -0.662 | -0.457 | -0.638
17 | GATGGCCTAGATCGCTCGGG | -0.856 | -0.372 | -1.61 | 0.406
18 | CTGCATCCACCCTCTGCCCT | -0.818 | 0.00483 | -0.0546 | 2.72
19 | GCTGATAACCCAAAGAAGAG | -0.488 | -0.665 | -0.0876 | 0.839
20 | TATAAGTTTAGGGTATTTAA | 0.0497 | -0.232 | -0.00259 | -0.174
21 | CCTCTCTGACACCTCAAAAT | 0.121 | -0.635 | -0.365 | -0.277
22 | TCGGGAAGAGAAGCACAAAG | -0.263 | 0.0229 | 0.323 | -0.442
23 | GCTGTGCCTATTCTCATCTG | -0.455 | -0.3 | -0.321 | 0.2
24 | CCCCTGCATATTTTTTTGGC | 0.02 | -0.262 | -0.165 | -0.434
25 | AAGTGTGGGAGATTTGGAGC | -0.707 | -0.631 | -0.384 | -0.615
26 | GAGAGTAGCCTAGTCCCTAG | -0.602 | -0.41 | -1.66 | -0.559

Source: PMC6451091
